About 14,000 (4.5%) of roughly 310,000 compounds showed an effect of 50% or more. Effects have a minus sign here. Some of the results follow.
biological target: human ether-à-go-go-related gene (hERG) potassium channel (human, UniProt Q12809); assay: primary screen, population patch clamp on CHO cells stably expressing hERG
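Further: peak tail current of the secondary pulse compared with the same well before compound.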

Sequence of human ether-à-go-go-related gene (hERG) potassium channel (Q12809 whole entry, looked up): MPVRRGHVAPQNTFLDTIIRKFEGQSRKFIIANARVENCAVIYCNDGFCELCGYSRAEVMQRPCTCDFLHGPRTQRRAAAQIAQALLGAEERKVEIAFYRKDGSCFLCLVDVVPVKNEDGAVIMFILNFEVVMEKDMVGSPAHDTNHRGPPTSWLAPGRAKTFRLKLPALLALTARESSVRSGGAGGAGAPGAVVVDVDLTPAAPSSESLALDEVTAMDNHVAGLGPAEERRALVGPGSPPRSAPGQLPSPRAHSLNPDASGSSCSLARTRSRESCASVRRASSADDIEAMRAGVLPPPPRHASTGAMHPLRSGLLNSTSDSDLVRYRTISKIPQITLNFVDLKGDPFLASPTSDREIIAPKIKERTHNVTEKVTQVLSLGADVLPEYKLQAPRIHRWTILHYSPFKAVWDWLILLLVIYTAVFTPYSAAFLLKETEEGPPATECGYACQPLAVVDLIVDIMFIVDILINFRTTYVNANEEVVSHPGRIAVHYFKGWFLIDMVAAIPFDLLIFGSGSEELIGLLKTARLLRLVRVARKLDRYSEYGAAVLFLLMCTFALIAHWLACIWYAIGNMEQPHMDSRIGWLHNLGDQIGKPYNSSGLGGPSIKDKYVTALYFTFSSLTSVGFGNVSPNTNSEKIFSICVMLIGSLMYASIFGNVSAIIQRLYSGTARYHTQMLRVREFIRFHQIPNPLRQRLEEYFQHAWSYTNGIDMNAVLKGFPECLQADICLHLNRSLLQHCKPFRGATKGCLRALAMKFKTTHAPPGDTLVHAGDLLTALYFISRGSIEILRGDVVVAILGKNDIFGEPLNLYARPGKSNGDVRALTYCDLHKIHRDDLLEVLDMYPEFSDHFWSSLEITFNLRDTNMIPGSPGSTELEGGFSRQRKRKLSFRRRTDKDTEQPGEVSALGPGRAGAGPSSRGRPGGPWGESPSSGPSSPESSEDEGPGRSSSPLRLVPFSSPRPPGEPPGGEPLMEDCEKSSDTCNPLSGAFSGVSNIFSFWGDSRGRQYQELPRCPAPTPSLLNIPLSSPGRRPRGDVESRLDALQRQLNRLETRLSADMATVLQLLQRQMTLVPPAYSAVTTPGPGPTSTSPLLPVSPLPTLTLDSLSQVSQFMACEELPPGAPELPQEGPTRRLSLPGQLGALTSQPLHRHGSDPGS

| Structure (SMILES) | hERG current change (%, negative = inhibition) at 10uM [%] |
| --- | --- |
| CC1Cc2cc(/C(O)=C3\C(=O)C(=O)N(CCN(C)C)C3c3ccccc3F)ccc2O1 (centres unmarked) | 2.94 |
| CN1CCC(NC(=O)CCc2ccccc2)CC1 | 34.3 |
| COc1ccc(CNC[C@@H](CCCCN(C)Cc2ccc(OC)cc2)N2C[C@H](c3ccccc3)N(CCc3ccc(Cl)c(Cl)c3)C(=O)C2=O)cc1 | -80.3 |
| O=C(COC(=O)c1ccc2ncsc2c1)NCc1ccc(Cl)cc1 | -4.62 |
| COc1ccc(CCN2C(=NC(C)=O)SC3CS(=O)(=O)CC32)cc1OC (centres unmarked) | -5.49 |
| CCOC(=O)C(CCC#N)(CCC#N)C(=O)OCC | 8.69 |
| CCCc1nc2nc(C)c(NS(=O)(=O)c3ccc4c(c3)CCCC4)c(=O)n2[nH]1 | 12.5 |
| CCc1cccc(NC(=O)C2CCCN(S(=O)(=O)c3cnc[nH]3)C2)c1 (centres unmarked) | 5.64 |
| COc1ccc(-c2noc(-c3ccccc3F)n2)cc1 | 4.74 |
| O=C(CSc1ncnc2ccccc12)c1cccs1 | 4.14 |
| Cc1cccc(/C(N)=N/OC(=O)CCc2ccccc2)c1 | 0.58 |
| CSc1nsc(SCC(=O)Nc2ccc(C(N)=O)cc2)n1 | 15.6 |
| Cc1ccccc1/C(N)=N/OC(=O)c1cccs1 | -0.754 |
| Cn1c(N)c(C(=O)Nc2cccc(Cl)c2)c(=O)n(C)c1=O | 21.2 |
| CCCCOc1cccc(OCC(=O)Nc2nc3ccccc3[nH]2)c1 | 30.1 |
| COc1ccc(S(=O)(=O)N(CCCN2CCCC2=O)Cc2cc3c(C)ccc(C)c3[nH]c2=O)cc1 | -36.1 |
| COc1ccc(CC(=O)NNS(=O)(=O)c2ccc([N+](=O)[O-])cc2)cc1OC | -4.78 |
| CCc1ccc(NC(=O)CSC2=C(C#N)C(c3ccco3)C3=C(CCCC3=O)N2)cc1 (centres unmarked) | -1.71 |
| COC(=O)c1sc(NC(=O)C2CCCO2)c(C(=O)OC)c1C (centres unmarked) | -8.24 |
| CN1CCN(C(=O)CCC(=O)c2ccc(F)cc2)CC1 | 8.49 |
| O=C(NN=C1CCC(c2ccccc2)CC1)c1ccccc1-n1cccc1 (centres unmarked) | 17.3 |
| CCn1c(=O)c2ccccc2n2c(SCC(=O)NCc3cccs3)nnc12 | -2.54 |

| Structure (SMILES) | hERG current change (%, negative = inhibition) at 10uM [%] |
| --- | --- |
| CCCN(C(=O)COC(=O)c1nc2nc(C)cc(C)n2n1)C1CCS(=O)(=O)C1 (centres unmarked) | 8.71 |
| O=C1[C@@H]2[C@H](C(=O)N1O)[C@H]1C=C[C@@H]2C1 | -5.3 |
| CCCCOC(=O)Sc1nc2ccccc2o1 | 16.2 |
| CCc1ccc(-n2c(C)n[nH]c2=S)cc1 | 12.5 |
| CCOc1cccc(/C(O)=C2/C(=O)C(=O)N(Cc3ccco3)C2c2ccncc2)c1 (centres unmarked) | -0.69 |
| O=C(NC(C(=O)N/N=C/c1cccnc1)c1n[nH]c(=O)c2ccccc12)c1ccccc1 (centres unmarked) | 21.8 |
| Cc1ccccc1OCC(=O)NCCCNC(=O)c1ccco1 | 3.07 |
| CCOC(=O)c1ccc(NC(=O)NC2CC3CCC(C2)N3C(=S)NC)cc1 (centres unmarked) | 4.72 |
| COCCSc1nnc(NS(=O)(=O)c2ccc(C)cc2)s1 | 8.07 |
| COc1ccc(CCNC(=O)CC2COc3ccccc3O2)cc1OC (centres unmarked) | -7.91 |
| COc1ccc(C(=O)CC(=O)c2ccccc2)cc1 | 13.8 |
| CCN(CC)c1ccc(NC(=O)C2CC3CCC2C3)cc1 (centres unmarked) | -1.16 |
| CCC/C(=N\O)c1c[nH]c2ccccc12 | 6 |
| CCN(c1ccccc1)S(=O)(=O)c1ccc(C(=O)N(C)CCc2ccc(OC)c(OC)c2)cc1 | -13.8 |
| Cc1cc(OCC(=O)Nn2cnnc2)c(C)cc1Br | 12.6 |
| COc1c(C(=O)NNC(=O)c2ccccc2Cl)csc1Br | -10.4 |
| O=c1cc(O)nc(SCc2ccccc2)[nH]1 | 4.74 |
| O=[N+]([O-])c1ccc(CSc2nnc(SCc3ccc(Cl)cc3)s2)cc1 | 16.8 |
| Cc1ccc(N2CC(C(=O)Nc3ccc(S(=O)(=O)Nc4nccc(C)n4)cc3)CC2=O)cc1 (centres unmarked) | 3.17 |
| O=C(Nc1ccc(OC(=O)c2ccncc2)cc1)c1ccncc1 | 11.4 |
| O=C(CCc1ccccc1)NNC(=O)Nc1ccc(F)c(Cl)c1 | -8.27 |
| CCN(CC(=O)Nc1c(F)cccc1F)C(=O)c1csc2c1CCCC2 | 7.01 |

Reference: paper PMC4336329 (PLoS ONE, 2015)
